Read counts are not given, so values of variants with three or more changes are uncertain.
B1: LINE1-full (parent)
chain: UACGUAGGUGGUUUUCCCCUGAUAGUGCUAAGGGGGCCUGGAAGUUUGGACUGGGCAGAGCUCAACACAGCGUGGCAAAGUGGCUGUGGCUAGACUGCCUCUCUGGAUUCCUCGUCACUCAGCAGGGCAUCUCUGAGAGAAAUGCC

Variants of: B1
Experiment: self-cleavage, relative activity (ratio to wild type); higher = more cleavage; in vitro, sequencing; the parent is a self-cleaving ribozyme

| Variant | self-cleavage |
| --- | --- |
| UACGUAGGUGGGUUUCCCCCGAUAGUGCUAAGGGGGCCUGGAAGUUUGGACUGGGCAGAGCUCAGCACAGCGUGGCAAAGUGGCUGUGGCUAGACUGCCUCUCUGGAUUCCUUGUCACUCAGCAGGGCAUCUCUGAGAGAAACGCC [U12G U20C A65G C113U U143C] | 0.28 |
| UACGUAGGUGGGUUUCCCCUGAUAGUGCUAAGGGGGCCUGGAAGUUUGGACUGGGCAGAGCUCAACACAGCGUGGCAAAUUGGCUGAGGCUAGACUGCCUCUCUGGAUUCCUCGUCACUCAGCAGGGCAUCUCUGAGAGAAAUGCC [U12G G80U U87A] | 0 |
| UACGUAGGUGGGUUUCCCCUGAUAGUGCUAAGGGGGCCUGGAAGCUUGGACUGGGCAGAGCUCAGCACAGCGUGGCAAAGUGGCUGUGACUGGACUGCCUCUCUGGAUUCCUCGUCACUCAGCAGGGCAUCUCUGAGAGAAAUGCC [U12G U45C A65G G89A A92G] | 0.13 |
| UACGUAGGUGGGUUUCCCCUGAUAGCGCUAAGGGGGCCUGGAAGUUUGGACUGGGCAGAGCUGAACACAGCGUGGCAAAGUGGCUGUGGCUAGACUGCCUCUCUGGAUUCCUCGUCACUCAGCAGGGCAUCUCUGAGAGAAAUGCC [U12G U26C C63G] | 0.62 |
| UACGUAGGUGGGUUACCCCUGAUAGUGCUAAGGGGGCCUGGAAGUUUGGACUGGGCAGAGCUCAACACAGCGUGGCAGAGUGGCUGUGGCUAGACUGCCUCUCUGGAUUCCUCGUCACUCAGCGGGGCAUCUCUGAGAGAAAUGCC [U12G U15A A78G A124G] | 0.59 |
| UACGUAGGUGGGUAUCCCCUGAUAGUGCUAAGGGGGCCUGGAAGUUCGGACUGGGCAGAGCUCAACACUGCGUGGCAAAGUGGCUGUGGCUAGACUGCCCCUCUGGAUUCCUCGUCACUCAGCAGGGCAUCUCUGAGAGAAAUGCC [U12G U14A U47C A69U U100C] | 0.65 |
| UACGUAGGUGGGUUUCCCCUGACAGUGCUAAGGGGACCUGGAAGUUUGGACUGGGCAGAGCUCAACACAGCGUGGCAAAGUGGCUGUGGCUAGACUGCCUCUCUGGAUUCCUCGUCACUCAGCAGGGCAUCUCUGAGAGAAUUGCC [U12G U23C G36A A142U] | 1.17 |
| UACGUAGGUGGGUUUCCCCUGAUAGUGCUAAGGGGGCCUGGAAGUUUGGACUGGUCAGAGCUCGACACAGCGUGGCAAAGUGGCUGUGGCUAGACUGCCUCUCUGGAUUCCUCGUCACUCAGCAGGGCAUCUCUGAGAGAAAUGCC [U12G G55U A64G] | 0.1 |
| UACGUAGGUGGGUUUCCCCUGAUAGUGCUAAGGGGGCCCGGAAGUUUGGACUGGGAAGAGCUCAACACAGCGUGGCAAAGUGGCUGUGGCUAGACUGCCUCUCUGGAUUCCUCGUCACUCAGCAGGGCAUCUCUGAGAGAAAUGCC [U12G U39C C56A] | 0.17 |
| UACGUAGGUGGGUUUCCCCUGAUAGUGCUAAGGGGGCCUGGAAGUUCGGACUGGGCAGAGCUCAACACAGCGUGGCAUAGUGGCUGUGGCUAGACUGCCUCUCUGGAUCCCUCGCCACUCAGCAGGGCAUCUCUGAGAGAAAUGCC [U12G U47C A78U U109C U115C] | 0 |
| UACGUAGGUGGGUCUCCCCUGAUAGUGCUAAGGGGGCCUGGAAGUUUGGGCUGGGCAGAGCUCAACACAGCGUGGCAAAGUGGCUGUGGCUAGACUUCCUCUCUGGAUUCCUCGUCACUCAGCAGGGCAUCUCUGAGAGAAAUGCC [U12G U14C A50G G97U] | 0.27 |
| UACGUAGGUGGGUUUCCCCUGAUAGUGCUAAGGGGGCCUGGAAGCUUGGACUGGGCAGAGCUCAACACAGCGUGGCGAAGUGGCUGUGGCUAGACUGCCUCUCUGGAUUCCUCGUCACUCAGCAGGGCAUCUCUGAGAGAAAUGCC [U12G U45C A77G] | 0.92 |
| UACGUAGGUGGGUUUCCCCUGAUAGUGCUAAGGGGGCCUGGAAGCUUGGACUGGGCAGAGCUCAACACAGCGUGGCUAAGUGGCUGUGGCUAGACUGCCUCUCUGGAUUCCUCGUCACUCAGCAGGGCAUCUCUGAGAGAAAUGCC [U12G U45C A77U] | 1.21 |
| UACGUAGGUGGGUUACCCCUGAUAGUGCUAAGGGGGCCUGGAAGCUUGGACUGGGCAGAGCACAACACAGCGUGGCAAAGUGGCUGUGGCUAGACUGCCUCUCUGGAUUCCUCGUCACUCAGCAGGGCAUCUCUGAGAGAAAUGCC [U12G U15A U45C U62A] | 0 |
| UACGUAGGUGGGUUUCCCCUGAUAGUGCCAAGGGGGCCUGGAAGUUUGGACUGGGCAGAGCUCAACACAGCGUGGCAAAGUGGAUGUGGCUAGACUGCCUCUCUGGAUUCCUCGUCACUCAGCAGGGCAUCUCUGAGAGAAAUGCC [U12G U29C C84A] | 0.14 |
| UACGUAGGUGGGUUUCCCCUGAUAGUGCAAAGGGGGCCUGGAAGUUUGGACUGGGCAGAGCUCAACACAGCGUGGCAAAGUGGCAGUGGCUAGACUGCCUCUCUGGACUCCUCGUCACUCAGCAGGGCAUCUCUGAGAGAAAUGCC [U12G U29A U85A U108C] | 0.29 |
| UACGUAGGUGGGUUUCCCCUGAUAGCGCUAAGGGGGCCUGGAAGUUUGGACUGGGCAGAGCUCAACACAGCGUGGCAAAGUGGCCGUGGCUAGACUGCCUCUCUGGGUUCCUCGUCACUCAGCAGGGCAUCUCUGAGAGAAAUGCC [U12G U26C U85C A107G] | 0 |
| UACGUAGGUGGGUUUCCCCUGAUAGUGCUAAGGGGGCCUGGAAGCUUGGACUGGGCAGAGCUCAACACAGCGUGGCAAAGUGGCUGUGGCUAGACUGCCUCUCUGGAUUCCUCGUCACUCGGCAGGGCAUCUCUGAGAGAAAUGCC [U12G U45C A121G] | 0.85 |
| UACGUAGGUGGGUUUCCCCUGAUAGUGCUAAGGGGGCCCGGAAGUUUGGACUGGGCAGAGCUCAACACAGCGUGGCAAAGUGGCUGUGGCUAGACUGCCUCUCUGGAUUCCUCGUCACUCAGCAAGGCAUCUCUGAGAGAAAUGCC [U12G U39C G125A] | 1.34 |
| UACGUAGGUGGGUCUCCCCUGAUAGUGCUAAGGGGGCCUGGAAGUUUGGACUGGGCAGAGCUCAACACAGCGUGGCAAUGUGGCUGUGGCUAGACUGCCUCUCUGGAUUCCUCGUCACUCUGCAGGGCAUCUCUGAGAGAAAUGCC [U12G U14C A79U A121U] | 1.31 |

| Variant | self-cleavage |
| --- | --- |
| UACGUAGGUGGGUUUCCCCCGAUAGUGCUAAGGGGGCCUGGAAGUUUGGACUGGGCAGAGCUCAACACAGCGUGGCAAAGUGGCGGUGGCUAGACUGCCUCUCUGGAUUCCUCGUCACUCAGCAGGGCAUCUCUGAGAGAAAUGCC [U12G U20C U85G] | 0.5 |
| UACGUAGGUGGGUUUCCCCUGAUAGUGCUAAGGGGGCCUGGAAGUUUGGACUAGGCAGAGCUCAACACAGCGUGGCAAAGUGGCUGUGGCUAGACUGCCUCUCUGGAUUCCUCGUCACUCAGCGGGGCAUCUCAGAGAGAAAUGCC [U12G G53A A124G U134A] | 0.75 |
| UACGUAGGUGGGUUUCCCCUGAUAGUGCUAAGGGGGCCCGGAAGUUUGGACUGGGCAGAGCUCAACACAGCGUGGCAAAGAGGCUGUGGCUAGACUGCCUCUCUGGAUUCCUCGUCACUCAGCAGGGCUUCUCUGAGAGAGAUGCC [U12G U39C U81A A129U A141G] | 2.1 |
| UACGUAGGUGGGUUUCCCCUGAUAGUGCUAAGGGGGCCUGGAAGUUCGGGCUGGGCAGUGCUCGACACAGCGUGGCAAAGUGGCUGUGGCUAGACUGCCUCUCUGGAUUCCUUGUCGUUCAGCAGGGCAUCUCUGAGAGAAAUGCC [U12G U47C A50G A59U A64G C113U A117G C118U] | 0.44 |
| UACGUAGGUGGGUUUCCCCGGAUAGUGCUAGGGGGGCCUGGAAGUUUGGACUGGGCAGGGCUCAACACAGCGUGGCAAAGUGGCUGAGGCUAGACUGCCUCUCUGGAUUCCUCGUCACACAGCAGGGCAUCUCUGAGAGAAAUGCC [U12G U20G A31G A59G U87A U119A] | 0.71 |
| UACGUAGGUGGGUUUCCCCAGAUAGUGCUAAGGGGGCCUGGAAGUUUGGACUGGGCAGAGCUCAACACAGCGUGGCAAAGUGGCUGUCGCUAGACUGCCUCUCUGGAUUCCUCGUCACUCAGCAGGGCAUCUCUGAGAGAAAUGCC [U12G U20A G88C] | 0.17 |
| UACGUAGGUGGGUUCCCCCUGAUAGUGCUAAGGGGGCCUGGAAGUUUGGACUGGGCAGAGCUCAACACUGCGUGGCAAAGUGGCUGUGGCUAGACUGCCUCUCUGGAUUCCUCGUCACUCAGCAGGGCAUCUCUGAGAGAAAUGCC [U12G U15C A69U] | 0.18 |
| UACGUAGGUGGGUCUCCCCUGAUAGUGCUAAGGGGGCCUGGAGGUUUGGACUGGGCAGAGCUCAACACAGCGUGGCAAGGUAGCUGUGGCUAGACUGCCUCUCUGGGUUCCUCGUCACUCAGCAGGGCAUCUCUGAGAGAAAUGCC [U12G U14C A43G A79G G82A A107G] | 0.37 |
| UACGUAGGUGGGCUUCCCCUGAUAGUGCUAAGGGAGCCUGGAAGUUUGGACUGGGCAGAGCUCAUCACAGCGUGGCAAGGUGGCUGUGGCUAGACUGCCUCUCUGGAUUCCUCGUCACUCAGCAGGGCAUCUCUGAGAGAAGUGCC [U12G U13C G35A A65U A79G A142G] | 0.16 |
| UACGUAGGUGGGUUUCCCCUGAUAGUGCUAAGGGGGCCUGGAAGUUUGGACUGGGCAGAGCUCAACACAGCGUGGCAAAGUGGAUGUGGCUAGACUGCUUCUCUGGAUUCCUCGUCACUCAGCAGGGCAUCUCUGAGAGAAAUGCC [U12G C84A C99U] | 0.08 |
| UACGUAGGUGGGUUCCCCCUGAAAGUGCUAAGGGGGCCUGAAAGUUUGGACUGGGCAGAGCUCAACACAGCGUGGCAAAGUGGCUGUGGCUAGACUGCCUCUCUGGAUUCCUCGUCACUCAGCAGGGCAUCUCUGAGAGAAAUGCC [U12G U15C U23A G41A] | 1.21 |
| UACGUAGGUGGGUUUCCCCUGAUAGCGCUAAGGGGGCCUGGAAGUUUGGACUGGGCAGAGCUCAACACAGCGUGGCAAAGUGGCUGUGGCUAGACUGCCUCUCUGGAUUCCUCGUCACUCAGCGGGGCAUCUCUGAGAGAAAAGCC [U12G U26C A124G U143A] | 0.84 |
| UACGUAGGUGGGUUUCCCCUGAUAGUGCUAAGGUGGCCUGGAAGUUUGGACUGGGCAGAGCUCAACACAGCGUGGCAAAGUGGCUGUGGCUAGACUGCCUCUCUGGAUUCCACGUCACUCAGCAGGGCAUCUCUGAGAGAAAUGCC [U12G G34U U112A] | 1.33 |
| UACGUAGGUGGGUUUCCCCUGACAGUGCUAAGGGGGCCUGGAAGUUUGGACUGGGCAGAGCUCAACACAGCGUGGCAAAGUGGCUGUGGCUAGACUGCCUCUCUGGAUUCCUCGUCACACAGCAGGGCAUCUCUGAGAGAAAUGCC [U12G U23C U119A] | 1.34 |
| UACGUAGGUGGGUUUCCCCAGAUAGUGCUAAGGGGGCCUGGGAGUUUGGACUGGGCAGAGCUCAACACGGCGUGGCAAAGUGGCUGUGGCUAGACUGCCUCUCUGGAUUCCUCGUCACUCAGCAGGGCAUCUCUGAGAGAAAUGCC [U12G U20A A42G A69G] | 0.93 |
| UACGUAGGUGGGUUUCCCCCGAUAGUGCUAAGGGGGCCUGGAAGUUUGGACUGGGCAGAGCUCAACGCAGCGUAGCAAAGUGGCUGUGGCUAGACUGCCUCUCUGGAUUCCUCGUCACUCAGCAGGGCAUCUCUGAGAGAAAUGCC [U12G U20C A67G G74A] | 0.74 |
| UACGUAGGUGGGUUUCCCCUGAUAGUGCUAAGGGGGCCUGGAAGUUUGGACUAGGCAGAGCUCAACACAGCGUGGCAAAGUGGCCGUGGCUAGACUGCCUCCCUGGAUUCCUCGUCACUCAGCAGGGCAUCUCUGAGAGAAAUGCC [U12G G53A U85C U102C] | 0.19 |
| UACGUAGGUGGGUUCCCCCUGAUAGUGCUAAGGGGGCCUGGAAGUUUGGACUGGGCAGAGCUCGACACAGCGUGGCAAAGUGGCUGUGGCUAGACUGCCUCUCUGGAUUCCUCGCCACUCAGCAGGGCAUCUCUGAGAGAAAUGCC [U12G U15C A64G U115C] | 0.28 |
| UACGUAGGUGGGUUUCCCCUGAUAGUGCUAAGGGGGCCUGGAAGUUAGGACUGGGCAGAGCUCAACACAGCGUGGCGAAGUGGUUGUGGCUAGACCGCCUCUCUGGAUUCCUCGUCACUCAGCAGGGCGUCUCUGAGAGAAAUGCC [U12G U47A A77G C84U U96C A129G] | 0.53 |

— the RNAGym collection of RNA variant scans (doi:10.7554/elife.90254)
